Source: the RNAGym collection of RNA variant scans (doi:10.1093/nar/gkz1192)
Read counts are not given, so values of variants with three or more changes are uncertain.

B1: CPEB3 Ribozyme (parent)
chain: UAACAGGGGGCCACAGCAGAAGCGUUCACGUCGCAGCCCCUGUCAGAUUCUGGUGAAUCUGCGAAUUCUGCUGUAUAUCUC

Variants of: B1
Test: self-cleavage, relative activity (ratio to wild type); higher = more cleavage; in vitro, sequencing
Method in brief: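 Relative activity was defined as the cleaved/total read fraction for a variant divided by the same fraction for the unmutated ribozyme. CPEB3 self-cleaving ribozyme libraries were made by rounds of error-prone PCR, barcoded, and transcribed in vitro with T7 RNA polymerase for 5 hours at 37°C, and cleavage ran through transcription plus a 15 min DNase I step before EDTA. Illumina sequencing of template-switched reverse transcripts gave the reads, and DNA sequencing mapped the barcodes. Averages come from three batches, using variants with at least 5 reads.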

Variant	self-cleavage
G6U A21G U31C U51C A65G	0.14
G7A A20G A47G A64G	0.06
G6U A35C A47G U51C	0.05
G6A U31C A56G	0.11
G6A U43C U78C	0.26
G6A U54A U74A	0.63
G6C G19A U51A U54G	0.06
G6U U49C U76C	0.15
G6A U66C U67C	0.21
G6A U51A U80C	0.39
G7A A21G U54G A64G A75G	0.03
G6U U26C A28G G33U U48C U72A	0.06
G6U A15U G63A	0.12
G6C U43C A56G A64G U69A G73U	0.15
G6U A20G C23G A28G U58A U69G A77G	0.02
G6A U54A U76C U78C	0.34
G6A U49C A56G G63U U72C	0.33
G7A A21G U80A	0.32
G6A U31C C44G	0.18
G6C U41C A47G U67C U80A	0.09
G7A A13G U60A	0.24
G6A U43A U66C U69G U78C	0.17
G6U A20U U26C U51A A56C U67C U80A	0.22
G6C A20G A35G U78C	0.26

Variant	self-cleavage
G7A A18G A45U	0.19
G6U A21G U31C U78C	0.2
G6U A21U U25C U58G	0.05
G6U A13U A18G U49A	0.33
G6U C29U U41A U43C U60C	0.05
G7A A18G G42A	0.11
G6U U26C U43C A45G U58C U60C U72G	0
G6C U26G U51A	0.06
G7A A18G U54C	0.2
G6U A28U U54A C68A U76A U80C	0.05
G6U A20G U41C U72A	0.07
G6C A45G U78C	0.58
G6U A18G A20U G33A A47U U78C U80A	0.05
G6U U25A U72C	0.25
G6U U41C A47G A65G	0.23
G6C A35G C44A G70C U74C	0.19
G6A U54C A64U U69C	0.12
G6A U48C C59A A65U	0.15
G7A A15G A75U	0.07
G6C U31C A35G U72A A77U U78A	0.04
G6U U31A A47G U49A A57G	0.05
G7A A21U G63A U69A	0.06
G6A U41C U60C U66C C71A	0.17
G6A U31C C38U A64G	0.07

Variant	self-cleavage
G6A U49C U78C	0.2
G6C G7C A20G U43C U72A	0.26
G7A A13C U26C	0.09
G7A A18U U43C C81U	0.05
G7A A21G U26C U72C	0.05
G6U G9A G16C C23U U26A A56C U74C	0.04
G6U A20G G24A A47U G52A A77U	0.05
G7A A13U A45G A65G U76C U78C	0.05
G7A A15G A20U A47U	0.23
G7A A20G U48C A65G U69A G70C U80C	0.02
G6A U41C C50A A65U A77G	0.14
G6U G30A C38A	0.07
G7A A15G G53U	0.35
G6U A13U A21G C40U U48C U67C	0.06
G6U A20C A35U U41A C44U A64G A75U	0.04
G6A U41G U78C	0.13
G6U C23G A45G U51C A56G	0.05
G6U A15G U26C A57G	0.14
G7A A20U A35U U43C A56G U74C	0.06
G6A U49A U76G U80C	0.2
G6U C11U U48C U54C	0.23
G7A A21G U25C	0.28
G7A A21G A47C A56U U72C U78C	0.12
G6U A47G C62A	0.2

Variant	self-cleavage
G6U A13U A18G A64G	0.29
G6U A15G U60C	0.39
G7A A15G U26C U51C U58A	0.06
G6U A15G U43A U48C U51C	0.11
G6C U31C A47G	0.35
G6U G42A U54C A77G	0.07
G7A A18G A35G A65G	0.06
G6U C12U A28U U60C	0.11
G6A U51A U67C U80C	0.16
G6C A21G A45G U51C U60C	0
G6C U41C U54A	0.17
G6A U48C U69C U74C	0.19
G6A U41C U72G U80C	0.27
G6U C12U A45U U54A A77G	0.05
G6U U51C U60G C62A U78A	0.06
G6A U31C G53U U72A	0.06
G6A U43C U69A	0.19
G6C U31A A35G U41G U66C U67C	0.15
G6U C14U U26A A64G U76C	0.09
G6U A20C C62A	0.23
G7A A20U A45U C68U U78A	0.05
G6U A35G A47G U49G	0.26
G6U A21G A35G A45G U54C	0.22
G7A A20U A56U	0.18

Variant	self-cleavage
G7A A20G A28U A77G	0.13
G6C U25C U54C U67C G73A	0.04
G6C U49C U72G	0.27
G6A U66C U67C U74A	0.79
G6U A13U A15G A57G	0.74
G7A A13G U41C	0.26
G6U A57G U60C	0.1
G6C C38U U54C	0.09
G7A A20G U25A U72C G73U U74A	0.06
G6U A15U U26A	0.09
G6U G8A A13U	0.11
G6C A13U U76C	0.44
G7A A15U U25G U26A U43C G70C	0.05
G7A A18G A28G G61C	0.12
G7A A13U A21G U49C U54A U76A	0.02
G6C U41C U51A U67C	0.33
G6C G8U A35U U54A A56U A64G	0.05
G6C A13G U41C U67C	0.22
G6U U66C U74C A77G	0.08
G6U U25C A65U	0.11
G7A A13U A20U U31C G33A U60A U72C	0.06
G6U A56G U76C A77G	0.17
G6U A28G A35G	0.27
G6C A35G U48C	0.46

Variant	self-cleavage
G6U A20U U69C U80C	0.37
G6U U49C A65U A77G	0.14
G6C A20G U26C G33A U51C A57U C81U	0.23
G7A A18G A21G C40A U54C U66C	0.04
G7A A13G C23A A45G U48C U54A A65G	0.07
G6U A15G C17G U76C	0.09
G6U C11A U48C A64G U66C U72C U78C	0.07
G6U U48A U72C	0.22
G7A A21G U60A A64U U72A U78C	0.04
G6C A15C A21C U25G A28C U60C	0
G6U A28G A45G A56C U69C G73A	0.18
G7A A20G U67A U69A U80C	0.06
G6C U43G U58C A64U U69G U74C	0.06
G6U A13U U26C A56G G63U A64G C81U	0.07
G7A A20G A21G A77G	0.06
G7A A13G A28U U41A G42C A65G U66C	0.05
G7A A21G G33A U49C	0.16
G6A U31C U60A U80C	0.06
G6C U25C A35U U60C	0.27
G7A A15G A21G	0.33
G7A A18G U25C A65G U67A A75U	0.09
G6U G24A U41G	0.5
G6U C14G U25G G30C U41A U43A	0.04
G6U U51C U80G	0.53

Variant	self-cleavage
G6U A35G A57G U58A U72A	0.21
G6U A45G U51A U69C U72A U78C	0.08
G6U A13U A15G U26A C39U	0.1
G6U U26C C29U A45G U60A	0.19
G6A U51C U67C	0.09
G6U A13U A28G	0.12
G6U A21G C44U A57G	0.15
G6U A18G G52A G63U U66A	0.06
G6A U51A U72C U76C	0.12
G6A U43C A47U	0.07
G6C A18G U80C	0.49
G7A A20G U26G A45G G53U U67C	0.04
G7A A13U A15G C23G U80C	0.09
G6U U51A A65U C81U	0.39
G6A U54C A64U A65G U80C	0.15
G6C A18G U48C A65G U66G	0.53
G6A U43A A45G U48C U58A U67C	0.07
G6U A18C A21U U51A A64G	0.05
G6C A13U A35U U76C	0.31
G6U C11G U26C U41C U74C	0.99
G6U G9A G22A U72A	0.07
G7A A20G C50G U58C U67C U69A	0.08
G6U A28G C38U U67A	0.06
